Measured values from patent US20230159453A1 (COCRYSTAL PHARMA, INC., priority 2020, published 2023).

Molecular target: Noro protease (Norovirus, UniProt Q83883)
Assay: Norovirus protease inhibition assay (Noro-Norwalk FRET protease assay)
Conditions: IC50 (μM), peptide substrate 10 μM, 90 minutes at 37° C., compounds 200 μM to 10.2 nM

Row | SMILES | IC50 [µM]
1 | CCOP(=O)(OCC)C(O)C(CC1CC2(CCN(C(C)=O)CC2)NC1=O)NC(=O)[C@H](CC(C)C)NC(=O)OCC(C)(C)c1cccc(Cl)c1 (stereo partly drawn) [Compound C84, 2-(3-Chlorophenyl)-2-methylpropyl ((2S)-1-((3-(8-acetyl-2-oxo-1,8-diazaspiro[4.5]decan-3-yl)-1-(diethoxyphosphoryl)-1-hydroxypropan-2-yl)amino)-4-methyl-1-oxopentan-2-yl)carbamate] | 190
2 | CC(C)C[C@H](NC(=O)OC1CCN(C(=O)OC(C)(C)C)c2ccccc21)C(=O)N[C@@H](C[C@@H]1CCNC1=O)C(=O)C(=O)NCc1ccccn1 (stereo partly drawn) [Compound C86, Tert-butyl 4-((((S)-1-(((S)-3,4-dioxo-1-((S)-2-oxopyrrolidin-3-yl)-4-((pyridin-2-ylmethyl)amino)butan-2-yl)amino)-4-methyl-1-oxopentan-2-yl)carbamoyl)oxy)-3,4-dihydroquinoline-1(2H)-carboxylate] | > 200
3 | CC(C)C[C@H](NC(=O)OC1(Cc2cccc(Cl)c2)CC1)C(=O)N[C@@H](C[C@@H]1CCNC1=O)C(=O)C(N)=O [Compound C88, 1-(3-Chlorobenzyl) cyclopropyl ((S)-1-(((S)-4-amino-3,4-dioxo-1-((S)-2-oxopyrrolidin-3-yl)butan-2-yl)amino)-4-methyl-1-oxopentan-2-yl)carbamate] | > 200
4 | CC(C)C[C@H](NC(=O)OCC(C)(C)c1cccc(Cl)c1)C(=O)N[C@@H](C[C@@H]1CCNC1=O)C(=O)C(N)=O [Compound C90, 2-(3-chlorophenyl)-2-methylpropyl ((S)-1-(((S)-4-amino-3,4-dioxo-1-((S)-2-oxopyrrolidin-3-yl)butan-2-yl)amino)-4-methyl-1-oxopentan-2-yl)carbamate] | 136
5 | CCOP(=O)(OCC)C(O)C(CC1CC2(CCN(C(C)=O)CC2)NC1=O)NC(=O)[C@H](CC(C)C)NC(=O)c1cc2ccccc2[nH]1 (stereo partly drawn) [Compound C94, Diethyl (2-((S)-2-(1H-indole-2-carboxamido)-4-methylpentanamido)-3-(8-acetyl-2-oxo-1,8-diazaspiro[4.5]decan-3-yl)-1-hydroxypropyl)phosphonate] | 156
6 | CCOP(=O)(OCC)C(O)C(CC1CC2(CCN(C(C)=O)CC2)NC1=O)NC(=O)[C@H](CC(C)C)NC(=O)OCC1CCC(F)(F)CC1 (stereo partly drawn) [Compound C95, (4,4-Difluorocyclohexyl)methyl ((2S)-1-((3-(8-acetyl-2-oxo-1,8-diazaspiro[4.5]decan-3-yl)-1-(diethoxyphosphoryl)-1-hydroxypropan-2-yl)amino)-4-methyl-1-oxopentan-2-yl)carbamate] | 116
7 | CC(C)C[C@H](NC(=O)OCC(C)(C)c1cccc(Cl)c1)C(=O)N[C@H](C=O)C[C@@H]1CCNC1=O [Compound C96, 2-(3-Chlorophenyl)-2-methylpropyl ((S)-4-methyl-1-oxo-1-(((S)-1-oxo-3-((S)-2-oxopyrrolidin-3-yl)propan-2-yl)amino)pentan-2-yl)carbamate] | 4.1
8 | CC(C)C[C@H](NC(=O)N(Cc1ccccc1)C1CCN(C(=O)OC(C)(C)C)CC1)C(=O)N[C@@H](C[C@@H]1CCNC1=O)C(=O)C(=O)NC1CC1 [Compound C98, Tert-butyl 4-(1-benzyl-3-((S)-1-(((S)-4-(cyclopropylamino)-3,4-dioxo-1-((S)-2-oxopyrrolidin-3-yl)butan-2-yl)amino)-4-methyl-1-oxopentan-2-yl)ureido)piperidine-1-carboxylate] | > 200
9 | CC(C)C[C@H](NC(=O)OC(Cc1ccccc1)c1ccccc1)C(=O)N[C@@H](C[C@@H]1CCNC1=O)C(=O)C(N)=O (stereo partly drawn) [Compound C100, 1,2-Diphenylethyl ((S)-1-(((S)-4-amino-3,4-dioxo-1-((S)-2-oxopyrrolidin-3-yl)butan-2-yl)amino)-4-methyl-1-oxopentan-2-yl)carbamate] | > 200
10 | CC(C)C[C@H](NC(=O)OCC(C)(C)c1cccc(Cl)c1)C(=O)N[C@H](CO)C[C@@H]1CCNC1=O [Compound C101, 2-(3-Chlorophenyl)-2-methylpropyl ((S)-1-(((S)-1-hydroxy-3-((S)-2-oxopyrrolidin-3-yl)propan-2-yl)amino)-4-methyl-1-oxopentan-2-yl)carbamate] | > 200
11 | CC(=O)N1CC2(CC(CC(C=O)NC(=O)[C@H](CC(C)C)NC(=O)OCc3cccc(Cl)c3)C(=O)N2)C1 (stereo partly drawn) [Compound C102, 3-chlorobenzyl ((2S)-1-((1-(2-acetyl-6-oxo-2,5-diazaspiro[3.4]octan-7-yl)-3-oxopropan-2-yl)amino)-4-methyl-1-oxopentan-2-yl)carbamate] | 6.9
12 | CC(C)(COC(=O)N[C@H](C(=O)N[C@H](C=O)C[C@@H]1CCNC1=O)C(C)(C)C)c1cccc(Cl)c1 [Compound C103, 2-(3-Chlorophenyl)-2-methylpropyl ((S)-3,3-dimethyl-1-oxo-1-(((S)-1-oxo-3-((S)-2-oxopyrrolidin-3-yl)propan-2-yl)amino)butan-2-yl)carbamate] | 21.3
13 | CC(C)C[C@H](NC(=O)OC(Cc1cccc(Cl)c1)c1ccccc1)C(=O)N[C@H](C=O)C[C@@H]1CCNC1=O (stereo partly drawn) [Compound C104, 2-(3-Chlorophenyl)-1-phenylethyl ((S)-4-methyl-1-oxo-1-(((S)-1-oxo-3-((S)-2-oxopyrrolidin-3-yl)propan-2-yl)amino)pentan-2-yl) carbamate] | 2.8
14 | CC(C)(c1cccc(Cl)c1)C(OC(=O)N[C@@H](CC1CCCCC1)C(=O)N[C@H](C=O)C[C@@H]1CCNC1=O)c1cccc(F)c1 (stereo partly drawn) [Compound C105, 2-(3-Chlorophenyl)-1-(3-fluorophenyl)-2-methylpropyl ((S)-3-cyclohexyl-1-oxo-1-(((S)-1-oxo-3-((S)-2-oxopyrrolidin-3-yl)propan-2-yl)amino)propan-2-yl)carbamate] | 2.7
15 | CC(C)(c1cccc(Cl)c1)C(OC(=O)N[C@@H](CC1CCCCC1)C(=O)N[C@H](C=O)C[C@@H]1CCNC1=O)c1cccc(Cl)c1 (stereo partly drawn) [Compound C106, 1,2-Bis(3-chlorophenyl)-2-methylpropyl ((S)-3-cyclohexyl-1-oxo-1-(((S)-1-oxo-3-((S)-2-oxopyrrolidin-3-yl)propan-2-yl)amino)propan-2-yl)carbamate] | 1.8
16 | CC(C)C[C@H](NC(=O)OCC1CCC(F)(F)CC1)C(=O)NC(C)(C=O)CC1CCNC1=O (stereo partly drawn) [Compound C107, (4,4-Difluorocyclohexyl) methyl ((2S)-4-methyl-1-((2-methyl-1-oxo-3-(2-oxopyrrolidin-3-yl)propan-2-yl)amino)-1-oxopentan-2-yl) carbamate] | 85.5
17 | CC(C)C[C@H](NC(=O)OC(c1ccccc1)C(C)(C)c1cccc(Cl)c1)C(=O)N[C@H](C=O)C[C@@H]1CCNC1=O (stereo partly drawn) [Compound C108, 2-(3-Chlorophenyl)-2-methyl-1-phenylpropyl ((S)-4-methyl-1-oxo-1-(((S)-1-oxo-3-((S)-2-oxopyrrolidin-3-yl)propan-2-yl)amino)pentan-2-yl) carbamate] | 0.979
18 | O=C[C@H](C[C@@H]1CCNC1=O)NC(=O)[C@H](CC1CCCCC1)NC(=O)OC(Cc1cccc(Cl)c1)c1ccccc1 (stereo partly drawn) [Compound C109, 2-(3-Chlorophenyl)-1-phenylethyl ((S)-3-cyclohexyl-1-oxo-1-(((S)-1-oxo-3-((S)-2-oxopyrrolidin-3-yl)propan-2-yl)amino)propan-2-yl)carbamate] | 1.4
